# Some of the results follow.
# B1: HHA (Hippeastrum hybrid) (protein)
# chain: MQQDCNLVLYDVDKPIWASNTGGLARDCHLNMQSDGNLVVYAPRNQVIWASNTQGENGNYVCILQKDRNVVIYGTARWATGTNIHGAGIVGVPGSAPQNTTAEMIKLVRKYLITK
# Columns and labels:
# Assay in all cases: glycan array binding signal (z-score within array); higher = stronger binding
# Details in all cases: glycan notation: IUPAC condensed, linker removed
# [1] = biological target: Gal(b1-4)GlcNAc(b1-3)Gal(b1-3)GlcNAc
# Method in brief: (§1)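 From the Consortium for Functional Glycomics database, 3228 arrays were curated, keeping only those whose protein sequence was available. Binding is given as a within-array Z-score averaged across arrays sharing a protein sequence and across linkers. Negative Z-scores can be read as non-binding.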
# [2] = biological target: Gal(b1-4)GlcNAc(b1-3)Gal(b1-4)Glc
# Method in brief: as §1
# [3] = biological target: Gal(b1-4)GlcNAc(b1-3)Gal(b1-4)GlcNAc
# Method in brief: as §1
# [4] = biological target: Gal(b1-4)GlcNAc(b1-3)Gal(b1-4)GlcNAc(b1-2)Man(a1-3)[Gal(b1-4)GlcNAc(b1-3)Gal(b1-4)GlcNAc(b1-2)Man(a1-6)]Man(b1-4)GlcNAc(b1-4)GlcNAc
# Method in brief: as §1
# [5] = biological target: Gal(b1-4)GlcNAc(b1-3)Gal(b1-4)GlcNAc(b1-2)Man(a1-3)[Gal(b1-4)GlcNAc(b1-3)Gal(b1-4)GlcNAc(b1-2)Man(a1-6)]Man(b1-4)GlcNAc(b1-4)[Fuc(a1-6)]GlcNAc
# Method in brief: as §1
# [6] = biological target: Gal(b1-4)GlcNAc(b1-3)Gal(b1-4)GlcNAc(b1-2)[Gal(b1-4)GlcNAc(b1-3)Gal(b1-4)GlcNAc(b1-6)]Man(a1-6)[Gal(b1-4)GlcNAc(b1-3)Gal(b1-4)GlcNAc(b1-2)Man(a1-3)]Man(b1-4)GlcNAc(b1-4)GlcNAc
# Method in brief: as §1
# [7] = biological target: Gal(b1-4)GlcNAc(b1-3)Gal(b1-4)GlcNAc(b1-2)[Gal(b1-4)GlcNAc(b1-3)Gal(b1-4)GlcNAc(b1-6)]Man(a1-6)[Gal(b1-4)GlcNAc(b1-3)Gal(b1-4)GlcNAc(b1-2)Man(a1-3)]Man(b1-4)GlcNAc(b1-4)[Fuc(a1-6)]GlcNAc
# Method in brief: as §1
# [8] = biological target: Gal(b1-4)GlcNAc(b1-3)Gal(b1-4)GlcNAc(b1-3)Gal(b1-4)GlcNAc
# Method in brief: as §1
# [9] = biological target: Gal(b1-4)GlcNAc(b1-3)Gal(b1-4)GlcNAc(b1-3)Gal(b1-4)GlcNAc(b1-2)Man(a1-3)[Gal(b1-4)GlcNAc(b1-3)Gal(b1-4)GlcNAc(b1-3)Gal(b1-4)GlcNAc(b1-2)Man(a1-6)]Man(b1-4)GlcNAc(b1-4)GlcNAc
# Method in brief: as §1
# [10] = biological target: Gal(b1-4)GlcNAc(b1-3)Gal(b1-4)GlcNAc(b1-3)Gal(b1-4)GlcNAc(b1-2)Man(a1-3)[Gal(b1-4)GlcNAc(b1-3)Gal(b1-4)GlcNAc(b1-3)Gal(b1-4)GlcNAc(b1-2)Man(a1-6)]Man(b1-4)GlcNAc(b1-4)[Fuc(a1-6)]GlcNAc
# Method in brief: as §1
# [11] = biological target: Gal(b1-4)GlcNAc(b1-3)Gal(b1-4)GlcNAc(b1-3)Gal(b1-4)GlcNAc(b1-2)[Gal(b1-4)GlcNAc(b1-3)Gal(b1-4)GlcNAc(b1-3)Gal(b1-4)GlcNAc(b1-6)]Man(a1-6)[Gal(b1-4)GlcNAc(b1-3)Gal(b1-4)GlcNAc(b1-3)Gal(b1-4)GlcNAc(b1-2)Man(a1-3)]Man(b1-4)GlcNAc(b1-4)[Fuc(a1-6)]GlcNAc
# Method in brief: as §1
# [12] = biological target: Gal(b1-4)GlcNAc(b1-3)Gal(b1-4)GlcNAc(b1-3)Gal(b1-4)GlcNAc(b1-3)Gal(b1-4)GlcNAc(b1-2)Man(a1-3)[Gal(b1-4)GlcNAc(b1-3)Gal(b1-4)GlcNAc(b1-3)Gal(b1-4)GlcNAc(b1-3)Gal(b1-4)GlcNAc(b1-2)Man(a1-6)]Man(b1-4)GlcNAc(b1-4)GlcNAc
# Method in brief: as §1
# [13] = biological target: Gal(b1-4)GlcNAc(b1-3)Gal(b1-4)GlcNAc(b1-3)Gal(b1-4)GlcNAc(b1-3)Gal(b1-4)GlcNAc(b1-2)Man(a1-3)[Gal(b1-4)GlcNAc(b1-3)Gal(b1-4)GlcNAc(b1-3)Gal(b1-4)GlcNAc(b1-3)Gal(b1-4)GlcNAc(b1-2)Man(a1-6)]Man(b1-4)GlcNAc(b1-4)[Fuc(a1-6)]GlcNAc
# Method in brief: as §1
# [14] = biological target: Gal(b1-4)GlcNAc(b1-3)Gal(b1-4)GlcNAc(b1-3)Gal(b1-4)GlcNAc(b1-3)Gal(b1-4)GlcNAc(b1-2)[Gal(b1-4)GlcNAc(b1-3)Gal(b1-4)GlcNAc(b1-3)Gal(b1-4)GlcNAc(b1-3)Gal(b1-4)GlcNAc(b1-6)]Man(a1-6)[Gal(b1-4)GlcNAc(b1-3)Gal(b1-4)GlcNAc(b1-3)Gal(b1-4)GlcNAc(b1-3)Gal(b1-4)GlcNAc(b1-2)Man(a1-3)]Man(b1-4)GlcNAc(b1-4)[Fuc(a1-6)]GlcNAc
# Method in brief: as §1
# [15] = biological target: Gal(b1-4)GlcNAc(b1-3)Gal(b1-4)GlcNAc(b1-3)Gal(b1-4)GlcNAc(b1-3)Gal(b1-4)GlcNAc(b1-3)Gal(b1-4)GlcNAc(b1-2)Man(a1-3)[Gal(b1-4)GlcNAc(b1-3)Gal(b1-4)GlcNAc(b1-3)Gal(b1-4)GlcNAc(b1-3)Gal(b1-4)GlcNAc(b1-3)Gal(b1-4)GlcNAc(b1-2)Man(a1-6)]Man(b1-4)GlcNAc(b1-4)GlcNAc
# Method in brief: as §1
# [16] = biological target: Gal(b1-4)GlcNAc(b1-3)Gal(b1-4)GlcNAc(b1-3)Gal(b1-4)GlcNAc(b1-3)Gal(b1-4)GlcNAc(b1-3)Gal(b1-4)GlcNAc(b1-2)Man(a1-3)[Gal(b1-4)GlcNAc(b1-3)Gal(b1-4)GlcNAc(b1-3)Gal(b1-4)GlcNAc(b1-3)Gal(b1-4)GlcNAc(b1-3)Gal(b1-4)GlcNAc(b1-2)Man(a1-6)]Man(b1-4)GlcNAc(b1-4)[Fuc(a1-6)]GlcNAc
# Method in brief: as §1
# [17] = biological target: Gal(b1-4)GlcNAc(b1-3)Gal(b1-4)GlcNAc(b1-3)Gal(b1-4)GlcNAc(b1-3)Gal(b1-4)GlcNAc(b1-3)Gal(b1-4)GlcNAc(b1-2)[Gal(b1-4)GlcNAc(b1-3)Gal(b1-4)GlcNAc(b1-3)Gal(b1-4)GlcNAc(b1-3)Gal(b1-4)GlcNAc(b1-3)Gal(b1-4)GlcNAc(b1-6)]Man(a1-6)[Gal(b1-4)GlcNAc(b1-3)Gal(b1-4)GlcNAc(b1-3)Gal(b1-4)GlcNAc(b1-3)Gal(b1-4)GlcNAc(b1-3)Gal(b1-4)GlcNAc(b1-2)Man(a1-3)]Man(b1-4)GlcNAc(b1-4)[Fuc(a1-6)]GlcNAc
# Method in brief: as §1
# [18] = biological target: Gal(b1-4)GlcNAc(b1-3)Gal(b1-4)GlcNAc(b1-3)Gal(b1-4)GlcNAc(b1-3)Gal(b1-4)GlcNAc(b1-3)Gal(b1-4)GlcNAc(b1-3)Gal(b1-4)GlcNAc(b1-2)Man(a1-3)[Gal(b1-4)GlcNAc(b1-3)Gal(b1-4)GlcNAc(b1-3)Gal(b1-4)GlcNAc(b1-3)Gal(b1-4)GlcNAc(b1-3)Gal(b1-4)GlcNAc(b1-3)Gal(b1-4)GlcNAc(b1-2)Man(a1-6)]Man(b1-4)GlcNAc(b1-4)GlcNAc
# Method in brief: as §1
# [19] = biological target: Gal(b1-4)GlcNAc(b1-3)Gal(b1-4)GlcNAc(b1-3)GalNAc
# Method in brief: as §1
# [20] = biological target: Gal(b1-4)GlcNAc(b1-3)Gal(b1-4)GlcNAc(b1-3)[Gal(b1-4)GlcNAc(b1-3)Gal(b1-4)GlcNAc(b1-6)]GalNAc
# Method in brief: as §1
# [21] = biological target: Gal(b1-4)GlcNAc(b1-3)Gal(b1-4)GlcNAc(b1-6)[Gal(b1-3)]GalNAc
# Method in brief: as §1
# [22] = biological target: Gal(b1-4)GlcNAc(b1-3)Gal(b1-4)[Fuc(a1-3)]GlcNAc(b1-3)Gal(b1-4)[Fuc(a1-3)]GlcNAc
# Method in brief: as §1
# [23] = biological target: Gal(b1-4)GlcNAc(b1-3)GalNAc
# Method in brief: as §1
# [24] = biological target: Gal(b1-4)GlcNAc(b1-3)[Fuc(a1-3)GlcNAc(b1-6)]Gal(b1-4)Glc
# Method in brief: as §1
# [25] = biological target: Gal(b1-4)GlcNAc(b1-3)[Gal(b1-4)GlcNAc(b1-6)]Gal(b1-4)GlcNAc
# Method in brief: as §1
# [26] = biological target: Gal(b1-4)GlcNAc(b1-3)[Gal(b1-4)GlcNAc(b1-6)]GalNAc
# Method in brief: as §1
# [27] = biological target: Gal(b1-4)GlcNAc(b1-3)[GlcNAc(b1-6)]Gal(b1-4)GlcNAc
# Method in brief: as §1
# [28] = biological target: Gal(b1-4)GlcNAc(b1-6)Gal(b1-4)GlcNAc
# Method in brief: as §1
# [29] = biological target: Gal(b1-4)GlcNAc(b1-6)Gal(b1-4)GlcNAc(b1-6)GalNAc
# Method in brief: as §1
# [30] = biological target: Gal(b1-4)GlcNAc(b1-6)GalNAc
# Method in brief: as §1
# [31] = biological target: Gal(b1-4)GlcNAc(b1-6)[Gal(b1-3)]GalNAc
# Method in brief: as §1
# [32] = biological target: Gal(b1-4)GlcNAc(b1-6)[Gal(b1-4)GlcNAc(b1-3)]GalNAc
# Method in brief: as §1
# Gal(b1-4)GlcNAc6P = biological target: Gal(b1-4)GlcNAc6P
# Method in brief: as §1
# Gal(b1-6)Gal = biological target: Gal(b1-6)Gal
# Method in brief: as §1
# Gal3S(b1-3)GalNAc = biological target: Gal3S(b1-3)GalNAc
# Method in brief: as §1
# Gal3S(b1-3)GlcNAc = biological target: Gal3S(b1-3)GlcNAc
# Method in brief: as §1
# [33] = biological target: Gal3S(b1-3)[Fuc(a1-4)]GlcNAc
# Method in brief: as §1
# Gal3S(b1-4)Glc = biological target: Gal3S(b1-4)Glc
# Method in brief: as §1
# Gal3S(b1-4)Glc6S = biological target: Gal3S(b1-4)Glc6S
# Method in brief: as §1
# Gal3S(b1-4)GlcNAc = biological target: Gal3S(b1-4)GlcNAc
# Method in brief: as §1
# Gal3S(b1-4)GlcNAc6S = biological target: Gal3S(b1-4)GlcNAc6S
# Method in brief: as §1
# [34] = biological target: Gal3S(b1-4)[Fuc(a1-3)]Glc6S
# Method in brief: as §1
# [35] = biological target: Gal3S(b1-4)[Fuc(a1-3)]GlcNAc
# Method in brief: as §1
# [36] = biological target: Gal3S(b1-4)[Fuc(a1-3)]GlcNAc6S
# Method in brief: as §1
# Gal3S4S(b1-4)GlcNAc = biological target: Gal3S4S(b1-4)GlcNAc
# Method in brief: as §1
binder,measurement,setting,value
B1,glycan array binding signal (z-score),[1],-0.209
same,glycan array binding signal (z-score),[2],-0.211
same,glycan array binding signal (z-score),[3],-0.194
same,glycan array binding signal (z-score),[4],-0.125
same,glycan array binding signal (z-score),[5],-0.153
same,glycan array binding signal (z-score),[6],-0.124
same,glycan array binding signal (z-score),[7],-0.149
same,glycan array binding signal (z-score),[8],-0.213
same,glycan array binding signal (z-score),[9],-0.069
same,glycan array binding signal (z-score),[10],-0.167
same,glycan array binding signal (z-score),[11],-0.143
same,glycan array binding signal (z-score),[12],-0.174
same,glycan array binding signal (z-score),[13],-0.173
same,glycan array binding signal (z-score),[14],-0.174
same,glycan array binding signal (z-score),[15],-0.17
same,glycan array binding signal (z-score),[16],-0.174
same,glycan array binding signal (z-score),[17],0.019
same,glycan array binding signal (z-score),[18],-0.01
same,glycan array binding signal (z-score),[19],0.002
same,glycan array binding signal (z-score),[20],-0.128
same,glycan array binding signal (z-score),[21],-0.122
same,glycan array binding signal (z-score),[22],-0.194
same,glycan array binding signal (z-score),[23],1.05
same,glycan array binding signal (z-score),[24],-0.201
same,glycan array binding signal (z-score),[25],-0.202
same,glycan array binding signal (z-score),[26],-0.247
same,glycan array binding signal (z-score),[27],-0.206
same,glycan array binding signal (z-score),[28],-0.218
same,glycan array binding signal (z-score),[29],-0.191
same,glycan array binding signal (z-score),[30],-0.197
same,glycan array binding signal (z-score),[31],-0.207
same,glycan array binding signal (z-score),[32],-0.202
same,glycan array binding signal (z-score),Gal(b1-4)GlcNAc6P,-0.209
same,glycan array binding signal (z-score),Gal(b1-6)Gal,-0.2
same,glycan array binding signal (z-score),Gal3S(b1-3)GalNAc,0.241
same,glycan array binding signal (z-score),Gal3S(b1-3)GlcNAc,-0.214
same,glycan array binding signal (z-score),[33],-0.207
same,glycan array binding signal (z-score),Gal3S(b1-4)Glc,-0.2
same,glycan array binding signal (z-score),Gal3S(b1-4)Glc6S,-0.2
same,glycan array binding signal (z-score),Gal3S(b1-4)GlcNAc,-0.187
same,glycan array binding signal (z-score),Gal3S(b1-4)GlcNAc6S,0.072
same,glycan array binding signal (z-score),[34],-0.158
same,glycan array binding signal (z-score),[35],-0.208
same,glycan array binding signal (z-score),[36],-0.196
same,glycan array binding signal (z-score),Gal3S4S(b1-4)GlcNAc,-0.205
